In publication PMC11348266:
These are yes or no findings as the source states them, for the method shown. In cells and extracts the contact can be indirect. Some entries that bind do so weakly or less than the wild type. For part of these data: Where a sequence is shown, tags or fusion partners need not be part of it.

Amino acid sequences for entries named in this document (tags omitted).
UniProt Q96CV9: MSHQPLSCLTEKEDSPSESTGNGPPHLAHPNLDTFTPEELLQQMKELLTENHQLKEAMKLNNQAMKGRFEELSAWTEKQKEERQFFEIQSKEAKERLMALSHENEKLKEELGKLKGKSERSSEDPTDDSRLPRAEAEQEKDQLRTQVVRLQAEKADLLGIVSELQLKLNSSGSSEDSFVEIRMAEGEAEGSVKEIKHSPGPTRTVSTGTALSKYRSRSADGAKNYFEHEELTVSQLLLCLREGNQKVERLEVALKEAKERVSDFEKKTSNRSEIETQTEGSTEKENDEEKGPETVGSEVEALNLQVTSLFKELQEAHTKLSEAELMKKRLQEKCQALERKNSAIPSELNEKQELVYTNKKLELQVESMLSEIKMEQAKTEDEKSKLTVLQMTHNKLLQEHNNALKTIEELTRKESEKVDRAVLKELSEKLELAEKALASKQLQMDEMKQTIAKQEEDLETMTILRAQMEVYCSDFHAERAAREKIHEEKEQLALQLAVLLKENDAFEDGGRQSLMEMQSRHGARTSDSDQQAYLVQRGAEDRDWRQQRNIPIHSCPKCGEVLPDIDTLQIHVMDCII
UniProt O60238: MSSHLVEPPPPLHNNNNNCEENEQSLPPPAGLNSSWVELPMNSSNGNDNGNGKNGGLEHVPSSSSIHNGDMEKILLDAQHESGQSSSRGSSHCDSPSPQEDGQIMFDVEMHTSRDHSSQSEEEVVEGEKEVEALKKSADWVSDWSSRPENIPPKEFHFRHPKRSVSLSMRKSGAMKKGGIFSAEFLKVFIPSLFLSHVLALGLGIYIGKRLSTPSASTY

Legend:
Assay in all cases: co-IP; HEK293T cells co-transfected with FLAG-/HA-/MYC-tagged plasmids; RIPA lysates incubated overnight with anti-FLAG or anti-MYC agarose beads, washed five times with RIPA buffer, immunoblot; cells treated with ME49 RNA (Figure 1G) or 3-MA 10 mM (Figures 3L, 4F) in some panels
[1] = target: T1, TBK1 S172A (UniProt Q9UHD2)
T1 sequence: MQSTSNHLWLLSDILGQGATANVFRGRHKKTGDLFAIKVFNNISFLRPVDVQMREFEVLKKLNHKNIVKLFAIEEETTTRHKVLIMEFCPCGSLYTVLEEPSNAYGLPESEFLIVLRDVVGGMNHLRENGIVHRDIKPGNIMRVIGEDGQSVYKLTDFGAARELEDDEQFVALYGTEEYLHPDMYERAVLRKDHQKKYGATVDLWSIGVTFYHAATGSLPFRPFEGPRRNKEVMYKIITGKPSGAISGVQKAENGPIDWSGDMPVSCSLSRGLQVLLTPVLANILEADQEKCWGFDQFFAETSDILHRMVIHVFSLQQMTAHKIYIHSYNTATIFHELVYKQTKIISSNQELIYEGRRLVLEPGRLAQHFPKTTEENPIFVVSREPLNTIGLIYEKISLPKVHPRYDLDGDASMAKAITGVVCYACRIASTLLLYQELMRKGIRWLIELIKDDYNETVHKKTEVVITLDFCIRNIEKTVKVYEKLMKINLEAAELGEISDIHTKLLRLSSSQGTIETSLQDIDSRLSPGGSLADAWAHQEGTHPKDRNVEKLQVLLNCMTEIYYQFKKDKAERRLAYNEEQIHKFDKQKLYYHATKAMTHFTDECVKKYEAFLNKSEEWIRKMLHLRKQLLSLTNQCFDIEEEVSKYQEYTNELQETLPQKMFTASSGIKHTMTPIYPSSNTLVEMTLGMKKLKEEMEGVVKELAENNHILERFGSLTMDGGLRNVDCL

[2] = target: T2, FLAG-NDP52 (UniProt Q13137)
T2 sequence: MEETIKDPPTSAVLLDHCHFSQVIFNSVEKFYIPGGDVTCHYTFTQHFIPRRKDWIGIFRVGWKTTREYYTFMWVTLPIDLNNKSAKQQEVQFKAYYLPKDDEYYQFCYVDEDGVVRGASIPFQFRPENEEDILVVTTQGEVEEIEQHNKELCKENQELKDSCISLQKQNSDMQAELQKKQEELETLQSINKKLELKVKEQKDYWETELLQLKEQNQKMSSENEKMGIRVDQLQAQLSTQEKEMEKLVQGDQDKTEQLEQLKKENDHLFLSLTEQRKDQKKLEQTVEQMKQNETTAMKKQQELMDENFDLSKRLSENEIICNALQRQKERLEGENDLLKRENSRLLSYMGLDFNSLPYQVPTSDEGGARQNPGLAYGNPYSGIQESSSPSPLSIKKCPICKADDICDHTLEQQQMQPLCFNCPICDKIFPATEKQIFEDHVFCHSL

[3] = target: T3, FLAG-NBR1 (UniProt Q14596)
T3 sequence: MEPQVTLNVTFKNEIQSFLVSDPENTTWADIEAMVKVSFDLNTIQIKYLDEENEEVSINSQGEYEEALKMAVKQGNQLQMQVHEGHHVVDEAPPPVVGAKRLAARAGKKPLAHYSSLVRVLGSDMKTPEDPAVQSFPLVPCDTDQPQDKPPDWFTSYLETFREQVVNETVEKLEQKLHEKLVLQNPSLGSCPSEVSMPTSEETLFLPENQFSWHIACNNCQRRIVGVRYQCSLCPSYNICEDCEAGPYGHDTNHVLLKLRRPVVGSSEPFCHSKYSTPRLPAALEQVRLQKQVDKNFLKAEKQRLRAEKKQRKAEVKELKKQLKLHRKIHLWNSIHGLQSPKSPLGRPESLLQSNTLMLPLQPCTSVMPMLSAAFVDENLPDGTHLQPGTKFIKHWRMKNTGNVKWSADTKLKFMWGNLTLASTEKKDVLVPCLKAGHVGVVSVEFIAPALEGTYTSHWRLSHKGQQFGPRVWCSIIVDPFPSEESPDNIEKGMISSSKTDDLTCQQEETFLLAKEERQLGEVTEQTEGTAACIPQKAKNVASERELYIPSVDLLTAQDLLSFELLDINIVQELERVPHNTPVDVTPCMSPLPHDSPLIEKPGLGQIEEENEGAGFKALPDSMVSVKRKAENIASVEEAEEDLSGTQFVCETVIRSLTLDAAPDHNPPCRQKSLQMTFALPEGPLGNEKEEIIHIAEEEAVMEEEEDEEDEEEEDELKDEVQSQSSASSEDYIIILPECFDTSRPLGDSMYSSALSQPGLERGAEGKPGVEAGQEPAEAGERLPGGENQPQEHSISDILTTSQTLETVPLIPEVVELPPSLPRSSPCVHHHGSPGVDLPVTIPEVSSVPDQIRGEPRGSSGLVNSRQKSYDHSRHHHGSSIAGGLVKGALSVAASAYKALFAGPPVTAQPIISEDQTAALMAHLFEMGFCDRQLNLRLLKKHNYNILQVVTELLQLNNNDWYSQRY

[4] = target: FLAG-OPTN (UniProt Q96CV9)
[5] = target: FLAG-p62 (Sequestosome 1, SQSTM1) (UniProt Q13501)
[6] = target: FLAG-NIX (UniProt O60238)
[7] = target: FLAG-TBK1 Y329A mutant (UniProt Q9UHD2)
[8] = target: T4, FLAG-TRIM27 (Tripartite Motif protein 27) (UniProt P14373)
T4 sequence: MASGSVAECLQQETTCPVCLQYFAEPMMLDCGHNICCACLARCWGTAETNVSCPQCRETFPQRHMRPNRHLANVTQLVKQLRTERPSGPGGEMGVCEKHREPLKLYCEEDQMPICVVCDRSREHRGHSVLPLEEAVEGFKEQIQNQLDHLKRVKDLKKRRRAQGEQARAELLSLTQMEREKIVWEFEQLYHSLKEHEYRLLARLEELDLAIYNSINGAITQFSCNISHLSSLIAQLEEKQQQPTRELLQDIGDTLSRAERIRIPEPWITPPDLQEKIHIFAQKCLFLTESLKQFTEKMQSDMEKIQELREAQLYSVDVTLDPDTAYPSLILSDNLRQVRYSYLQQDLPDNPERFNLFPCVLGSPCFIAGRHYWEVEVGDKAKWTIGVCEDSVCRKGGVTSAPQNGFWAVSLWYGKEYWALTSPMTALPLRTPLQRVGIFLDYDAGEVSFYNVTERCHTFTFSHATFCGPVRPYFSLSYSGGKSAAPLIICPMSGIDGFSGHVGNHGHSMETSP

Substance | binding [1] | binding [2] | binding [3] | binding [4] | binding [5] | binding [6] | binding [7] | binding [8]
GRA4 (construct of Figures S3C and S4C, tag not shown) (from UniProt S8EUV6 1-345) | binds weakly | – | – | – | – | – | – | –
HA-GRA4 (Toxoplasma gondii dense granule protein 4) (from UniProt S8EUV6 1-345) | – | no binding | binds | binds | binds | binds | – | –
MYC-GRA4 (Toxoplasma gondii dense granule protein 4) (from UniProt S8EUV6 1-345) | – | – | – | – | binds | – | no binding | binds
